Data from ChEMBL document CHEMBL4888484, “Replenishing the malaria drug discovery pipeline: Screening and hit evaluation of the MMV Hit Generation Library 1 (HGL1) against asexual blood stage Plasmodium falciparum ,using a nano luciferase reporter read-out” (2022).
The campaign covered roughly 150,000 compounds. About 540 (0.36%) showed an effect of 50% or more. This is one part of the list.

These compounds were tested on Plasmodium falciparum (assay: Primary screen in NF54 nanoGlo assay, in single point, at 2uM, 72h; a lower Z score goes with more inhibition). Conditions: timepoint 72 hour.
Format: functional, Erythrocyte

| Structure (SMILES) | % Inhibition | Z score |
| --- | --- | --- |
| CC(C)(C)c1cc(C(=O)NCCc2c[nH]c3ccccc23)nc2[nH][nH]c(=O)c12 | -8% | 1 |
| Cc1nnc(CN(C)CCC2CCCC2)n1C | -7% | 1.12 |
| c1ccc(CC2CCC(NC(c3cccnc3)c3ncc[nH]3)C2)cc1 (stereo not drawn) | 4% | -0.69 |
| O=C(Nc1cc(Cl)cc(Cl)c1)[C@@H]1CCCN1CC(=O)N1CCNC1=O | -10% | 1.45 |
| CC(C)CNC(=O)CCc1ccc(F)cc1 | -4% | 0.53 |
| O=C(Cn1ccc2ccccc21)N1CC(O)C1 | -2% | 0.24 |
| COc1ccccc1CNC(=O)[C@H]1CN(S(=O)(=O)c2cccnc2)CC12CCCCC2 | 31% | -3.55 |
| Cc1ccccc1N1CCN(C(=O)[C@H]2CCCN(c3nnc4cccc(C)n34)C2)CC1 | -17% | 2.87 |
| COc1ccc(CCS(=O)(=O)NCC[C@H]2CCCCN2S(=O)(=O)c2cccs2)cc1 | 2% | -0.32 |
| CCc1c[nH]c(CNC(=O)C2(C(=O)NC3CC3)CCC2)n1 | 32% | -4.6 |
| C[C@H]1CCCCN1C1CN(Cc2ccc(OCCCn3ccnc3)cc2)C1 | -3% | 0.37 |
| Cc1nc(CC(C)C)c(C(=O)N2CCOCC3(CCCC3)C2)s1 | 2% | -0.31 |
| CCCNC(=O)CNC(=O)Nc1ccc(C)cn1 | -10% | 1.43 |
| Cc1ccccc1CN1C(=O)OC(c2ccc(NC(=O)c3ccccc3)cc2)C1C(=O)Nc1ccccc1 (stereo not drawn) | -7% | 0.86 |
| CO[C@H]1COC[C@@H]1NS(=O)(=O)N1CCC(C)(C)CC1 | -4% | 0.48 |
| c1cncc([C@H]2CCN(Cc3csc(-c4ccco4)n3)C2)c1 | -4% | 0.78 |
| C[C@@]12CCCN1C(=O)N(C1CCN(Cc3ccccn3)CC1)C2=O | -4% | 0.52 |
| Cn1nc(O)c2c1CN(C(=O)Nc1cccc3cc[nH]c13)CC2 | -3% | 0.45 |
| C#CCN(C(=O)Nc1nc(C)c(C)o1)C1CCCCC1 | 29% | -3.84 |
| O=C(NCc1cccnc1-n1ccnc1)[C@H]1CCc2[nH]ncc2C1 | -6% | 1.07 |
| CC(C)(C)[C@H]1CCc2c(sc3nc(-c4ccc(Br)cc4)cn23)C1 | -7% | 0.97 |
| COC[C@@H](O)CN(C)C(=O)CC1CCCCCC1 | -16% | 1.64 |
| Cc1ccc(S(=O)(=O)N2CC3CC2CO3)cc1F (stereo not drawn) | -2% | 0.28 |
| CC(C)(C)C(=O)NCCNC(=O)c1ccncc1 | -35% | 4.1 |
